Measured values: publication PMC4336329 (PLoS ONE, 2015)
In all, about 310,000 compounds went through this assay and about 14,000 (4.5%) showed an effect of 50% or more. The effect is printed as a negative number. The list shows a part of the results.

target: human ether-à-go-go-related gene (hERG) potassium channel (human, UniProt Q12809); assay: primary screen, population patch clamp on CHO cells stably expressing hERG
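Also: peak tail current of the secondary pulse compared with the same well before compound.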

Sequence of human ether-à-go-go-related gene (hERG) potassium channel (Q12809 whole entry, looked up): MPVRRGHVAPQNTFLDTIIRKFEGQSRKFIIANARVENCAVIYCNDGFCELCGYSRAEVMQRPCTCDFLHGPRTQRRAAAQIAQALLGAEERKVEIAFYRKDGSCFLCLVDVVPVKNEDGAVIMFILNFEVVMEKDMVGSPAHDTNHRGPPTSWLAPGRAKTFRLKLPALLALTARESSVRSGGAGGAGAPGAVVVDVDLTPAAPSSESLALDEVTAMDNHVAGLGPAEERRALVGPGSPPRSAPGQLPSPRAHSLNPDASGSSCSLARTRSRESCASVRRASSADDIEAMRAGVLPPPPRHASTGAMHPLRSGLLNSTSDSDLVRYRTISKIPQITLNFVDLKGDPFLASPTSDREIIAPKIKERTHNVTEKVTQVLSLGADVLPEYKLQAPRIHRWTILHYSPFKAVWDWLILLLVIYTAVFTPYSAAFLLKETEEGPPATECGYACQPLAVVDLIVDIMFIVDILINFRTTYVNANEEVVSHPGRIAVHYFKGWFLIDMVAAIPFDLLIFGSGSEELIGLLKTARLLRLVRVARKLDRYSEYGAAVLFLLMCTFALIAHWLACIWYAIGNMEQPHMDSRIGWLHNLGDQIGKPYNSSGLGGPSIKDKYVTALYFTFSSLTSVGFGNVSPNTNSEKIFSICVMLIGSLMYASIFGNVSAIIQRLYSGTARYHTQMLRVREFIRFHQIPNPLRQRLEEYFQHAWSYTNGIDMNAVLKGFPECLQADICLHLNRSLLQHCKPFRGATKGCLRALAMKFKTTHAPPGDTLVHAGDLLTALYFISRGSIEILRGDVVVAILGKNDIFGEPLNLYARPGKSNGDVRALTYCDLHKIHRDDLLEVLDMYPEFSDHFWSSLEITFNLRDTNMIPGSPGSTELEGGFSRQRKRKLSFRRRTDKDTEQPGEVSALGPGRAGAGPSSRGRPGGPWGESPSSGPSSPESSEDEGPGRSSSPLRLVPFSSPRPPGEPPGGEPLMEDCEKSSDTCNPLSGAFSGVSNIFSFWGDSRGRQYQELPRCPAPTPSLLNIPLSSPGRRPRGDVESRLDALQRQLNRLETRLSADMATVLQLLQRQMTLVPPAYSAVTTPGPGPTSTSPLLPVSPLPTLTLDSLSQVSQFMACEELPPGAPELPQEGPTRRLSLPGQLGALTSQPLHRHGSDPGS

| SMILES | hERG current change (%, negative = inhibition) at 10uM |
| --- | --- |
| COc1ccc(O[C@H]2C=C[C@@H](c3ccccc3)O[C@@H]2CO/N=C(\C)CCN2CCc3nc(-c4ccccc4)c(-c4ccccc4)cc3C2)cc1 | 6.94% |
| COc1ccc(/C([O-])=C(/C(=S)Nc2ccc(C)c(C)c2)n2c[n+](C)c3ccccc32)cc1OC | 48.3% |
| C/C(CCc1ccccc1)=N\NC(=O)CCc1ccccc1 | -7% |
| CC1(C)Cc2c(c(-c3ccccc3)nc(N3CCCC3)c2C(N)=O)CO1 | 4.06% |
| CCOC(=O)/C(C#N)=C/c1ccc(N2CCN(Cc3ccccc3)CC2)cc1 | -6.47% |
| O=C(CSc1nc(-c2ccccc2)c(-c2ccccc2)o1)NCCCO | -31% |
| COc1cccc(OC)c1OCCOCCN1CCN(C)CC1 | 20.8% |
| COc1ccc(N(CC(=O)NCc2ccccc2Cl)S(=O)(=O)c2c(C)n[nH]c2C)cc1 | 2.87% |
| O=C(NCc1ccc2c(c1)OCO2)c1cc(Cl)ccc1Cl | 11.9% |
| Cc1ccc2c(c1)c1c(n2CC(O)CN2CCOCC2)CCCC1.Cl (stereo not drawn) | 9.32% |
| CCc1ccccc1NC(=O)CSc1nc2[nH]c(=O)cc(O)c2s1 | 16.3% |
| CCCn1cc(S(=O)(=O)c2ccc(OC)cc2)c(=O)c2cc(OC)ccc21 | -6.28% |
| O=C(NCc1ccccc1)c1ccc(/C=N/O)nc1 | -6.57% |
| CC(C)C1CC(=O)NC(SCC(=O)Nc2ccc(Br)cc2)=C1C#N (stereo not drawn) | -2.52% |
| O=C(C1CCCO1)N1CCN(Cc2c(O)ccc3ccccc23)CC1 (stereo not drawn) | -6.15% |
| CCN1CCN(CCNC(=O)c2cn(C(C)c3ccccc3F)nn2)CC1 (stereo not drawn) | 9.37% |
| COc1ccc2cc(C=NS(=O)(=O)c3ccc(C)cc3)n(C)c2c1 | 9.83% |
| Cc1cccc(NC(=S)NNC(=O)COc2ccc(Cl)cc2Cl)c1 | 14.6% |
| COc1ccc(/C=N/NS(=O)(=O)c2ccccc2)cc1OS(=O)(=O)c1ccc(C)cc1 | 8.09% |
| NC(=O)C1CCN(C(=O)c2cc3c(s2)CCCC3)CC1 | -8.49% |
| C=CCOc1ccc(C(=O)Nc2ccc3c(c2)n(C)c(=O)n3C)cc1 | -8.74% |
| CC(=O)Nc1ccc(C(=O)NNC(=O)C2CC2)cc1 | 30.7% |

| SMILES | hERG current change (%, negative = inhibition) at 10uM |
| --- | --- |
| CCCCN(C)CCNC(=O)c1cc2cc3ccc(OC)cc3nc2o1 | -43% |
| Cc1cccc(NC(=O)c2ccc(S(=O)(=O)N3CCCCC3C)cc2)n1 (stereo not drawn) | -5.94% |
| CC12CCC(=O)N1C(C(=O)N1CCN(c3ccc(C(F)(F)F)cc3[N+](=O)[O-])CC1)CS2 (stereo not drawn) | -12.2% |
| CC1(C)OC(=O)C(C(c2ccccc2)C(C#N)C(N)=O)=C(O)O1.CCN(CC)CC (stereo not drawn) | -5.82% |
| O=C(N/N=C/c1cccc(C(F)(F)F)c1)C1CCN(c2ncc(C(F)(F)F)cc2Cl)CC1 | 7.68% |
| Cc1cc(N2C(=O)C(=O)/C(=C(/O)c3ccc(F)cc3)C2c2ccc(Cl)cc2)no1 (stereo not drawn) | 28.8% |
| COc1cc(NC(=O)Cn2nnc(-c3ccccc3N)n2)cc(OC)c1 | 1.63% |
| CC(=O)C1=C(O)C(=O)N(c2ccc(Br)cc2)C1c1ccccc1[N+](=O)[O-] (stereo not drawn) | -21.6% |
| O=C(Nc1ccccc1NC(=O)c1csnn1)c1csnn1 | 15.2% |
| Cc1ccccc1C(=O)NC1CCN(Cc2ccccc2)CC1 | -29.1% |
| O=C(Cc1c[nH]c2ccccc12)N1CCN(c2ccccc2)CC1 | 7.12% |
| O=C(CCc1ccccc1)Nc1sc2c(c1C(=O)O)CCCC2 | 16.3% |
| CCCOc1ccc(C(=O)NC2CCSc3ccccc32)cc1 (stereo not drawn) | 13% |
| CCn1cnc2sc(C(=O)Oc3ccc(Br)cc3)c(C)c2c1=O | 18.2% |
| Cc1ccc(S(=O)(=O)C2(C(=O)NCCc3ccccc3)CC2)cc1 | -1.15% |
| Cn1nc(N)nc1N1CCN(c2ccc(F)cc2)CC1 | 17.6% |
| Cc1cc(C)nc(SCC(=O)N/N=C/C=C/c2ccccc2)n1 | -27.7% |
| CC(=O)N1CCN(C(=O)CCC(=O)O)CC1 | -2.1% |
| COc1ccc(NC(=O)N2CCCCC2c2cccnc2)cc1 (stereo not drawn) | -10.1% |
| Cc1c(F)cccc1NS(=O)(=O)c1ccc(OCCNS(C)(=O)=O)cc1 | 12.1% |
| COc1ccc(C(=O)Nc2ccnn2C2CCN(CCC(C)c3ccc(C)o3)CC2)cc1 (stereo not drawn) | -67% |
| COc1ccccc1NC(=O)C(=O)NNS(=O)(=O)c1ccc2ccccc2c1 | 6.71% |

| SMILES | hERG current change (%, negative = inhibition) at 10uM |
| --- | --- |
| COc1ccc(OC)c(C2/C(=C(/O)c3ccc(C)cc3)C(=O)C(=O)N2Cc2ccco2)c1 (stereo not drawn) | -7.22% |
| CC1=NN(C(=O)c2ccc(Cn3ccc([N+](=O)[O-])n3)cc2)C(O)(C(F)(F)F)C1 (stereo not drawn) | -8.73% |
| Cn1c(O)c(/C=N/NC(=O)c2ccncc2)c(=O)[nH]c1=S | 14% |
| CCCCC(=O)Nc1ncc(S(=O)(=O)c2ccc([N+](=O)[O-])cc2)s1 | 17.9% |
| O=C(COC(=O)COc1ccc(Cl)cc1)Nc1ccc2c(c1)OCCO2 | -1.84% |
| COC(=O)C(NS(=O)(=O)c1ccc(F)cc1)c1ccccc1 (stereo not drawn) | 1.53% |
| CCOC(=O)c1[nH]cnc1C(=O)Nc1ccc(Cl)cc1 | 5.75% |
| N#Cc1c(-c2ccc(Cl)cc2)c2c([nH]c1=O)-c1ccccc1OC2 | 19.6% |
| CN(NC(=O)c1ccccc1F)c1ccc([N+](=O)[O-])cn1 | -11.2% |
| COC(=O)c1c(C(=O)OC)c(-c2ccc(C)cc2)n2c1CCC2 | -0.278% |
| N#Cc1c(N)nc(SCC(=O)NC2CCCCC2)c(C#N)c1-c1ccc(Cl)cc1 | 0.478% |
| Cc1csc(=O)n1CC(=O)OCc1nnc(-c2ccccc2)o1 | 0.132% |
| COc1ccccc1NC(=S)N1CCN(c2ccccc2F)CC1 | 2.05% |
| COc1ccccc1C(CNC(=O)c1ccc(NS(=O)(=O)c2ccc(F)c(C)c2)cc1)N1CCCC1 (stereo not drawn) | -58.1% |
| CCc1ccc(S(=O)(=O)Nc2ccc(Br)cn2)cc1 | -0.907% |
| Cc1noc(C)c1COc1ccc(C(=O)NCCc2ccc(S(N)(=O)=O)cc2)cc1 | -9.58% |
| COc1cc2c(cc1OC)-c1nnc(-c3cccs3)n1C(C)(C)C2 | -38.3% |
| Fc1ccc2c(c1)C(c1ccncc1)=NNC(c1ccc(Br)cc1)=N2 | -1.97% |
| COc1ccc(CNS(=O)(=O)c2c(C)[nH]c(C)c2C(=O)N2CCCC2)cc1 | 17.6% |
| CC(C)CN(C(=O)COC(=O)c1c2c(nc3ccccc13)CCC2)c1c(N)n(Cc2ccccc2)c(=O)[nH]c1=O | 4.06% |
| O=C(C/C=N/OCc1ccccc1F)c1cnc(-c2ccc(Cl)cc2)s1 | 16.5% |
| O=S(=O)(CCc1nnc(-c2ccccc2)o1)c1ccc2ccccc2c1 | 3.03% |

| SMILES | hERG current change (%, negative = inhibition) at 10uM |
| --- | --- |
| O=C(NCC(=O)N1CCCCCC1)c1ccc(OC(F)F)cc1 | -11.3% |
| Cc1cc(C)cc(NC(=S)N2CCC(NC(=O)c3ccco3)CC2)c1 | 7.82% |
| CCC(=NCc1cccnc1)c1c(O)n(-c2ccc(C)cc2)c(=O)[nH]c1=O | -8.04% |
| O=C(NNS(=O)(=O)c1ccc(Cl)cc1)c1cc(-c2ccccc2)nc2ccccc12 | -0.297% |
| COc1ccccc1N1CCN(CCCOc2ccc(F)cc2)CC1 | -71.8% |
| Cc1ccc(C(C(=O)NC(C)(C)C)N(Cc2cccnc2)C(=O)C(=O)NC2CCCCC2)o1 (stereo not drawn) | 8.62% |
| Cc1ccc(C(=O)C2C(c3cccs3)NC(=O)NC2(O)C(F)(F)F)cc1 (stereo not drawn) | -2.25% |
| Cc1ccc(C(=O)OCC(=O)c2c[nH]c3ccccc23)cc1S(=O)(=O)N1CCCCC1 | -1.63% |
| Cc1ccc(C)c(OCCC(=O)OCC(=O)N2CCN(c3ccccc3)CC2)c1 | -19% |
| CC(C)N1CCC(N2CCN(CCCn3cccn3)CC2CCO)CC1 (stereo not drawn) | -28% |
| NC(=O)c1ccc[n+](CC(=O)c2ccc(F)cc2)c1.[Br-] | 14.5% |
| Brc1ccc(OCc2ccccc2)c(CNCC2CCCO2)c1.Cl (stereo not drawn) | -50% |
| COC(=O)c1cccc(S(=O)(=O)N2CCOCC2)c1 | 6.61% |
| CC(OC(=O)CCCc1nc2ccccc2s1)C(N)=O (stereo not drawn) | -4.81% |
| CCc1noc(C)c1C(=O)Nc1nc(-c2ccc(Cl)cc2Cl)c(C)s1 | 6.75% |
| CCOP(=O)(OCC)C(Nc1ccc(C)cc1)c1ccco1 (stereo not drawn) | 12.1% |
| COc1ccc(/C(C)=N/N=C(N)N)c(O)c1 | -1.13% |
| O=C(/C=C/c1ccco1)Nc1ccccc1N1CCCCC1 | 15.3% |
| S=c1nc(C2CC2)n(-c2ccccc2)[nH]1 | 7.34% |
| Cl.c1ccc2c(c1)CCCC2C1=NCCN1 (stereo not drawn) | -10% |
| CCCCn1c(CNC(C)=O)nc2ccccc21 | 3.5% |
